Experimental data from publication PMC7819943, “Rice protein-binding microarrays: a tool to detect cis-acting elements near promoter regions in rice”.
Some of the results follow.

Target: T1, OsWOX13 (Oryza sativa, UniProt Q5QMM3 1-267)
T1 sequence: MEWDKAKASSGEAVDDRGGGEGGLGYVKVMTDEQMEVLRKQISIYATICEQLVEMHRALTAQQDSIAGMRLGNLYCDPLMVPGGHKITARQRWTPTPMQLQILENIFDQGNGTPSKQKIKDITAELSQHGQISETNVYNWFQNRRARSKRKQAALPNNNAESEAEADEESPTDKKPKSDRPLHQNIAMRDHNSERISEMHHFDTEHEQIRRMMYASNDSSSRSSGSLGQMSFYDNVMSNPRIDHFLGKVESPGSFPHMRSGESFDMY
Experiment: protein-binding microarray (RPBM); PBS, 2% BSA, 51.3 ng/ul salmon testes DNA, 50 uM zinc acetate, 200 nM TF, 25 C, 1 h; high values mean tight binding
Settings: protein: recombinant; tags: N-terminal polyhistidine and DsRed monomer fusion (pET32a); label: CyDye5-dUTP incorporated in the synthesized complementary strand; 3' TTTTT single-stranded linker to array surface; dsDNA, one strand shown
Summary of the method: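 A custom Agilent array was converted to double-stranded form by primer extension with Cy5-dUTP and blocked with 2% BSA. Protein at 200 nM in PBS with 2% BSA, salmon testes DNA and 50 µM zinc acetate was applied for 1 h at 25 °C, followed by washing. The proteins were polyhistidine–DsRed N-terminal fusions of transcription factors, expressed in E. coli BL21-CodonPlus and Ni–NTA-purified. The binding signal is per-feature fluorescence intensity (arbitrary units) from an Axon 4000B scanner.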

Sequence	binding signal
ACAAGATTATTTTAACATATGCATGATCTGATTTGATGCTCGGAGTCACCTAGTGCAG	20100 fluorescence intensity (a.u.)
ATTAATTATTATAAATTTAGGAAATGGAATTATTTGATTTCGGAGTCACCTAGTGCAG	25200 fluorescence intensity (a.u.)
AGTTGCTTGATTATTGGGACTTGGGAGCAACTCACACACTCGGAGTCACCTAGTGCAG	13800 fluorescence intensity (a.u.)
AATGGAATTGCACAGGGCTAATTGGCACTTGACACTTTGGCGGAGTCACCTAGTGCAG	22500 fluorescence intensity (a.u.)
TCTAATTTGCATGATATCCAGAAGAGCTTAATATTTTGGCCGGAGTCACCTAGTGCAG	12900 fluorescence intensity (a.u.)
CCGCCAATCACCCCAACCATCCATTTATGTCGTCGCGCCCCGGAGTCACCTAGTGCAG	17700 fluorescence intensity (a.u.)
ATCGCAATAACGGGTAATTGACTTCCGCTGATTTGTTTAGCGGAGTCACCTAGTGCAG	24900 fluorescence intensity (a.u.)
GACAAATTTCTTCAAACTGACAAATTAATCGAGCCCTACCCGGAGTCACCTAGTGCAG	7460 fluorescence intensity (a.u.)
CCAACTTGATTACATACGGCGGCATCTGTGTTATCACGGGCGGAGTCACCTAGTGCAG	27200 fluorescence intensity (a.u.)
GGAAATGATTTGAAAAGTGGTTTTATTCCTGTTAACTTTACGGAGTCACCTAGTGCAG	8080 fluorescence intensity (a.u.)
AACCGATTGGATCTAATAATGAGGGACTTATTCCATCACCCGGAGTCACCTAGTGCAG	4610 fluorescence intensity (a.u.)
CCAATCAATTTGATCTCTCACCTCACTCTCGTGGGCTCACCGGAGTCACCTAGTGCAG	11900 fluorescence intensity (a.u.)
TTGGAAGTTTGATTGAAATTGGAACGATGTGACGGGAAAGCGGAGTCACCTAGTGCAG	23300 fluorescence intensity (a.u.)
CGAGATTGGTAGTATTTCTATATTTTACTACCAGTTGGCGCGGAGTCACCTAGTGCAG	29600 fluorescence intensity (a.u.)
AAGATAATCACCGGGCAAATTACTGTTGCTGCTAGTTCACCGGAGTCACCTAGTGCAG	28800 fluorescence intensity (a.u.)
TGTTAATGAATCTAGACTAAATAAATGTGGAAAGTGCTAGCGGAGTCACCTAGTGCAG	4760 fluorescence intensity (a.u.)
GTGCGGATTCCCAATTAATTCCCATTGATCTATCGTATGTCGGAGTCACCTAGTGCAG	12300 fluorescence intensity (a.u.)
CTTACTTCTATGTGATTTACTAACTACTTTTACATACTTTCGGAGTCACCTAGTGCAG	3320 fluorescence intensity (a.u.)
GCACAGTAAGTGACCTAATCAATTGTAGTTAAATCCAGATCGGAGTCACCTAGTGCAG	3510 fluorescence intensity (a.u.)
TGCCCCAATGATTTTGTACCACAGACCAGCTCAAGTTGCCCGGAGTCACCTAGTGCAG	4400 fluorescence intensity (a.u.)
CCAAATTAAGTGGAAATTAATTTGCAAGCTGAGAACGATGCGGAGTCACCTAGTGCAG	55000 fluorescence intensity (a.u.)

Sequence	binding signal
TGCACGTGATATACTTGATTACTTGAGGAGAGACATGATCCGGAGTCACCTAGTGCAG	10700 fluorescence intensity (a.u.)
AGCAAATCTTAAGATTGACGAAGTCAGCACGGATGTTTCGCGGAGTCACCTAGTGCAG	23100 fluorescence intensity (a.u.)
ATTGACAGCATGTGGTTCATCAATATAGGTCTTTCCAACACGGAGTCACCTAGTGCAG	7370 fluorescence intensity (a.u.)
CCAAATGGAATCAGGCGATTGGCTGCGGTTCCTCCTCCCTCGGAGTCACCTAGTGCAG	9230 fluorescence intensity (a.u.)
GCATGCCAGACTCCTAATTGGATTGCTCCAACTGCCTCCACGGAGTCACCTAGTGCAG	3180 fluorescence intensity (a.u.)
AAATAATTATCATGTTTGTGTCCATTCATTAAGTCTATTCCGGAGTCACCTAGTGCAG	17200 fluorescence intensity (a.u.)
ATGGGCTTATTCAATTTATTACTAAAATCAACCATACCAACGGAGTCACCTAGTGCAG	3300 fluorescence intensity (a.u.)
CATAGATTGTGTGTAAATTGCGAGACGAATCTTTTAAGCCCGGAGTCACCTAGTGCAG	33300 fluorescence intensity (a.u.)
TAAAACTTTATTAATTATATTATGAGTTAATGGACTACCTCGGAGTCACCTAGTGCAG	23900 fluorescence intensity (a.u.)
AGTTAATTAATTACCAAGGACAAAGGTTACGATATTTAAACGGAGTCACCTAGTGCAG	20600 fluorescence intensity (a.u.)
GATTCGCTGATCAATCATTCCGTTCCCTTCGAGTGGTCTACGGAGTCACCTAGTGCAG	6160 fluorescence intensity (a.u.)
AATAAAATTAAATTTTGTTAGTCAAGGGAGACACTATTTTCGGAGTCACCTAGTGCAG	17300 fluorescence intensity (a.u.)
TCTATTATTTAATTTATTGTTAAATATACTTTTATCTATACGGAGTCACCTAGTGCAG	8300 fluorescence intensity (a.u.)
TTTCAATTTTATAATAATTAATCTATTCATTTCTACTCTCCGGAGTCACCTAGTGCAG	13200 fluorescence intensity (a.u.)
ATAAATTATGGAAAGTCAGCGCGCGTGCAGCGGCGGCTCACGGAGTCACCTAGTGCAG	4160 fluorescence intensity (a.u.)
AGAGATAATTGGGAAGATTAGAAAGATACGTAAAACGAGGCGGAGTCACCTAGTGCAG	38100 fluorescence intensity (a.u.)
ACAGACGAAATATGTAATTTGTTTTGTTATTAGTCTACGTCGGAGTCACCTAGTGCAG	9030 fluorescence intensity (a.u.)
ACCTATTCAATCAAATAAAAGAATTGTTTGAACCACTTTTCGGAGTCACCTAGTGCAG	10700 fluorescence intensity (a.u.)
ATTTTGACAGGGAAACTAAACCGGACCAAGATCATACGATCGGAGTCACCTAGTGCAG	22400 fluorescence intensity (a.u.)
CTCGCTAATTGTGTAGGAGGCTAATCAGAATTTAGAACCCCGGAGTCACCTAGTGCAG	20200 fluorescence intensity (a.u.)
CATACCTCTTTTGATTGATTGAAGATTGTGGGTTTTGTGTCGGAGTCACCTAGTGCAG	38800 fluorescence intensity (a.u.)

Sequence	binding signal
AGAAGATTGTGATTAATTGAGAAGTGGAGGTAGGCAAGAACGGAGTCACCTAGTGCAG	25800 fluorescence intensity (a.u.)
ACACAAATTTAATTAACCTTATATTCCCTGGGTATGAATGCGGAGTCACCTAGTGCAG	19200 fluorescence intensity (a.u.)
GACGAATCTTTTGAGCCTAATTACGCTATAATTTGACAATCGGAGTCACCTAGTGCAG	3220 fluorescence intensity (a.u.)
ATTTCCCAATTTATTTACATGTATGCACTGACACCACAAGCGGAGTCACCTAGTGCAG	6650 fluorescence intensity (a.u.)
CGGCTTAATTAGTCTCAAAAGATTCGTCTCGCGGTTTACACGGAGTCACCTAGTGCAG	14200 fluorescence intensity (a.u.)
GGCTAACATGTCTGAAATTGCCGAAGTCACAGAGTATGTACGGAGTCACCTAGTGCAG	3270 fluorescence intensity (a.u.)
AAATCACTATTAAATATAAATTGCTTGATATGTCAAGTACCGGAGTCACCTAGTGCAG	4550 fluorescence intensity (a.u.)
CAGAATTTGACAATTGATCAACTAAGCAAATCCTATCATCCGGAGTCACCTAGTGCAG	14000 fluorescence intensity (a.u.)
TCTAATTTTAGCGTAAACTAAACACACCCATAGTTTAGGCCGGAGTCACCTAGTGCAG	12400 fluorescence intensity (a.u.)
ACAACGATCTGTTTCTATCAATTTCTCAGATGGGACCTGACGGAGTCACCTAGTGCAG	3350 fluorescence intensity (a.u.)
AGGACGATATTGATTAGTACTCAACGTGACAATTGATGCACGGAGTCACCTAGTGCAG	27100 fluorescence intensity (a.u.)
AGAATTAGCTGTGATTAACCGGTTGCATATGACATGAGGTCGGAGTCACCTAGTGCAG	12100 fluorescence intensity (a.u.)
TACAAATGTAACTATAGTATAATTACACTGTAATTATATACGGAGTCACCTAGTGCAG	7270 fluorescence intensity (a.u.)
ACTTATGATGAGTTATTAATGACAAACTCATCATCAGTTCCGGAGTCACCTAGTGCAG	11800 fluorescence intensity (a.u.)
TCATGAACTGATAATTTGGATTAGTTCAAAATTTCTTGAGCGGAGTCACCTAGTGCAG	9040 fluorescence intensity (a.u.)
TCTCGATTTGATTTGACCTGGATGCGCGCGAACGGAGACGCGGAGTCACCTAGTGCAG	20700 fluorescence intensity (a.u.)
TAGCTATCATGGAAATCATATAATCTATCAATTCGAGCGACGGAGTCACCTAGTGCAG	4540 fluorescence intensity (a.u.)
CATCCATGATTACCCATAAAGTGCTGCAGTAATCCACATGCGGAGTCACCTAGTGCAG	12400 fluorescence intensity (a.u.)
ATCCCTAATTCCCTATTAACAACAACTAACCAGCTAAAATCGGAGTCACCTAGTGCAG	4040 fluorescence intensity (a.u.)
AAGCTAACTGACGAGGAGGTGGATGAGATGATCCGTGAGGCGGAGTCACCTAGTGCAG	7000 fluorescence intensity (a.u.)
CTTAATTGGGACCCTCTCCTATCTGGATCATTCAACCAAACGGAGTCACCTAGTGCAG	31100 fluorescence intensity (a.u.)

Sequence	binding signal
ATATCTAATAGATTGTCCAGCAGAAGTCCATGCTCCACCGCGGAGTCACCTAGTGCAG	17600 fluorescence intensity (a.u.)
ATGTTAAATTTATTGAGATTCAGTGTTATAAATTTTGCTACGGAGTCACCTAGTGCAG	13400 fluorescence intensity (a.u.)
ATGACAAATTATCAGTTCAGTTGTGGCTATCACCATTGTCCGGAGTCACCTAGTGCAG	30200 fluorescence intensity (a.u.)
TTTTATGATGCCTATCAGCAAATTATACAAATTTTAAGTGCGGAGTCACCTAGTGCAG	3180 fluorescence intensity (a.u.)
AACAAATTTGAGTTTCGGCTTATTAAGTTAATTAAGCACACGGAGTCACCTAGTGCAG	13200 fluorescence intensity (a.u.)
TTTTACTCATAATTAAATTTACAAGTAAAACTTTTACCCTCGGAGTCACCTAGTGCAG	10100 fluorescence intensity (a.u.)
GCGGCTAATTGTATTGCCGCTCTCTTGTTGTATGGATTGACGGAGTCACCTAGTGCAG	4610 fluorescence intensity (a.u.)
GTAATTAAATTAGTTGCGTCCCCACCGATAAATTTTGCCACGGAGTCACCTAGTGCAG	13500 fluorescence intensity (a.u.)
TGCTGATATTATCAAATTTGGTCGTTAACAATCTCACAACCGGAGTCACCTAGTGCAG	8520 fluorescence intensity (a.u.)
AGTAATTAATTAATTCGGTGTGGGCAAAAGAAGAGATAGGCGGAGTCACCTAGTGCAG	36700 fluorescence intensity (a.u.)
TGTTAATAAATCTAAATATATATATGTGTGTCTAGTCCATCGGAGTCACCTAGTGCAG	3410 fluorescence intensity (a.u.)
TCAAATTGGTGTGACATCGTTGTTTTGTCACATCAGTTGTCGGAGTCACCTAGTGCAG	18200 fluorescence intensity (a.u.)
TCAAAGCTTGATGATGATTATGCATGGAAATCGCCCGAGGCGGAGTCACCTAGTGCAG	5440 fluorescence intensity (a.u.)
AACAAATTGGAATCTGAACCTCTAGTGAACAATGCTTGAACGGAGTCACCTAGTGCAG	15000 fluorescence intensity (a.u.)
GATAATTACCCACCCGAGGCTCCTGCGTCGTCCTCCTCTTCGGAGTCACCTAGTGCAG	8300 fluorescence intensity (a.u.)
CCTAAATGTAAATTTTCCAGCATAACTTGTTAGCTCTATACGGAGTCACCTAGTGCAG	14200 fluorescence intensity (a.u.)
AAATGCGCCAATAATTTAACAGCCATTCAGCAATTACACCCGGAGTCACCTAGTGCAG	4130 fluorescence intensity (a.u.)
GGTGAGGATTGAAGATCCCTTGATTTAATCATGTTTGCATCGGAGTCACCTAGTGCAG	13300 fluorescence intensity (a.u.)
TCTAATCACATGCATGATGCTAATTAATGCTAGCTAGCTTCGGAGTCACCTAGTGCAG	7980 fluorescence intensity (a.u.)
TCACGATTAATTATATCATCATTTTGTATCCTTTGATTTCCGGAGTCACCTAGTGCAG	25200 fluorescence intensity (a.u.)
AATAAATAAACAAACAGCACTCCCTGCACTGTTGCACCCTCGGAGTCACCTAGTGCAG	7190 fluorescence intensity (a.u.)
